# From the supplement of paper PMC9446081
# Among all 39,000 compounds or so, about 220 (0.56%) showed activity. Some of the results follow.
# System: Escherichia coli K-12 BW25113
# Experiment: relative growth (OD600 normalised to plate interquartile mean) (fraction); higher = less growth inhibition, active = 0.2 or less
# Settings: 50 µM; LB; incubation time: overnight (16-24 h)
# 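Note: static incubation at 37 °C against the wild-type strain, values averaged over two biological replicates.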
row,Structure (SMILES),relative growth
1,Cc1noc(C)c1NC(=O)Nc1ccc2c(c1)CC(=O)N([C@@H](C)CO)C[C@@H](C)[C@@H](CN(C)S(=O)(=O)c1cn(C)cn1)O2,inactive: 0.84
2,CN1CCN(C)[C@@H](CO)C1,inactive: 0.986
3,Cc1noc(C)c1S(=O)(=O)N(C)C[C@@H]1Oc2ccc(NS(=O)(=O)c3cn(C)cn3)cc2CC(=O)N([C@H](C)CO)C[C@@H]1C,inactive: 0.99
4,COC(=O)c1c2oc(c1C(=O)OC)C(=O)N[C@@H](Cc1ccccc1)Cn1cc(nn1)[C@@H](Cc1ccccc1)NC(=O)N[C@H](COC(=O)NCCCCCC(=O)NO)CC2,inactive: 1.02
5,CO[C@@H]1CN(C)C(=O)c2cc(NC(=O)Nc3cccc(Cl)c3)ccc2OC[C@@H](C)N(C(=O)Nc2c(C)noc2C)C[C@@H]1C,inactive: 1
6,COc1ccc(S(=O)(=O)N(C)C[C@@H]2Oc3c(NS(C)(=O)=O)cccc3C(=O)N([C@@H](C)CO)C[C@@H]2C)cc1,inactive: 0.996
7,O=C(CCc1ccc(O)cc1)c1c(O)c([C@@H]2O[C@H](CO)[C@@H](O)[C@H](O)[C@H]2O)c(O)c([C@@H]2O[C@H](CO)[C@@H](O)[C@H](O)[C@H]2O)c1O,inactive: 1
8,Cc1noc(C)c1NC(=O)Nc1ccc2c(c1)C(=O)N([C@H](C)CO)C[C@H](C)[C@@H](CN(C)CC1CC1)OCCCC[C@H](C)O2,inactive: 0.994
9,Cc1noc(C)c1S(=O)(=O)Nc1ccc2c(c1)CC(=O)N([C@@H](C)CO)C[C@@H](C)[C@H](CN(C)Cc1ccc(C(=O)O)cc1)O2,inactive: 1
10,C[C@H](O)C#Cc1ccc2c(c1)O[C@@H](CN(C)C(=O)Nc1ccccc1)[C@@H](C)CN([C@@H](C)CO)S2(=O)=O,inactive: 0.984
11,COc1cccc(CN(C)C[C@H]2OCc3ccccc3-c3c(n(C)c4ccccc34)C(=O)N([C@@H](C)CO)C[C@@H]2C)c1,inactive: 1.03
12,Cn1ccnc1CN1CC[C@]2(COCCN(S(C)(=O)=O)C2)C1,inactive: 1.03
13,Cc1ccc(S(=O)(=O)N2C[C@H](O)COC[C@H]3O[C@H](CC(=O)NCc4ccc5c(c4)OCO5)CC[C@@H]32)cc1,inactive: 1
14,CCOc1ccc(Nc2nc3c(=O)nc[nH]c3n2[C@H]2O[C@@H](CO)[C@@H](O)[C@@H]2O)cc1,inactive: 1.04
15,N[C@@H](Cc1cc(I)c(Oc2ccc(O)c(I)c2)c(I)c1)C(=O)O,inactive: 1
16,COc1ccc(CN(C)C[C@H]2OCCCC[C@H](C)Oc3ccc(NC(=O)Nc4cccc5ccccc45)cc3C(=O)N([C@H](C)CO)C[C@@H]2C)cc1,inactive: 1.04
17,COC1C(O)C(O)C(O)C(O)C1O (configuration not stated),inactive: 0.97
18,COc1ccc([C@@H]2CC(=O)c3c(O)cc(O[C@@H]4O[C@H](CO[C@@H]5O[C@@H](C)[C@H](O)[C@@H](O)[C@H]5O)[C@@H](O[C@H]5O[C@H](CO)[C@@H](O)[C@H](O)[C@H]5O)[C@H](O)[C@H]4O)cc3O2)cc1O,inactive: 0.992
19,CN(C)CC#Cc1ccc([C@H]2[C@@H](CO)N3CCCCN(C(=O)CN(C)C)C[C@@H]23)cc1,inactive: 1.01
20,NCc1ccc(-n2cccc2)cc1,inactive: 0.993
21,O=C(C[C@H]1C[C@@H]2c3cc(NS(=O)(=O)c4ccc(F)cc4)ccc3O[C@@H]2[C@@H](CO)O1)N1CCOCC1,inactive: 1

row,Structure (SMILES),relative growth
1,C[C@@H]1CN([C@@H](C)CO)C(=O)c2cccc(NS(=O)(=O)c3ccccc3)c2O[C@@H]1CN(C)C(=O)Nc1cccc2ccccc12,inactive: 0.983
2,C[C@@H]1CCCCO[C@@H](CN(C)Cc2ccc(Cl)c(Cl)c2)[C@@H](C)CN([C@H](C)CO)C(=O)c2cc(NS(=O)(=O)c3cn(C)cn3)ccc2O1,inactive: 1.04
3,COc1ccc(S(=O)(=O)Nc2ccc3c(c2)C(=O)N([C@@H](C)CO)C[C@@H](C)[C@@H](CN(C)C(=O)Nc2ccccc2)OCCCC[C@@H](C)O3)cc1,inactive: 1.05
4,CCNC(=O)C[C@H]1CC[C@H](NC(=O)C2CC2)[C@H](CO)O1,inactive: 1.01
5,Cc1ccc(S(=O)(=O)N(C)C[C@@H]2Oc3c(NC(=O)c4cnccn4)cccc3C(=O)N([C@H](C)CO)C[C@H]2C)cc1,inactive: 0.989
6,CCCNC(=O)N1C[C@]2(CCN(CC2)C(=O)Cc2cccnc2)c2c([nH]c3cc(ccc23)OC)[C@@H]1CO,inactive: 1.02
7,COc1ccc(S(=O)(=O)Nc2cccc3c2O[C@H](CN(C)CC2CC2)[C@H](C)CN([C@@H](C)CO)C3=O)cc1,inactive: 1.01
8,COc1ccc(S(=O)(=O)Nc2cccc3c2O[C@H](CN(C)Cc2ccc(Cl)c(Cl)c2)[C@H](C)CN([C@@H](C)CO)C3=O)cc1,inactive: 1.02
9,CO[C@@H]1CN(C)C(=O)c2cc(NC(=O)Nc3ccccc3F)ccc2OC[C@@H](C)N(C(=O)Nc2ccccc2F)C[C@H]1C,inactive: 1.02
10,C[C@@H]1CN([C@@H](C)CO)C(=O)Cc2cc(NS(=O)(=O)c3cccs3)ccc2O[C@H]1CN(C)C(=O)Nc1cccc2ccccc12,inactive: 1.03
11,C[C@H](CO)N1C[C@H](C)[C@@H](CN(C)Cc2ccccc2)OCCCC[C@H](C)Oc2ccc(NS(=O)(=O)c3cccs3)cc2C1=O,inactive: 0.987
12,O=c1[nH]cnc2c1ncn2C1CCC(CO)O1 (configuration not stated),inactive: 0.609
13,C[C@H](CO)N1C[C@H](C)[C@@H](CN(C)S(=O)(=O)c2cccs2)OCCCC[C@H](C)Oc2ccc(NC(=O)Nc3ccc(F)cc3)cc2C1=O,inactive: 1.05
14,COc1cc([C@H]2OC[C@@H]3[C@H]2CO[C@H]3c2cc(OC)c(O[C@@H]3O[C@H](CO)[C@@H](O)[C@H](O)[C@H]3O)c(OC)c2)cc(OC)c1OC,inactive: 0.993
15,C[C@@H]1CN([C@H](C)CO)C(=O)Cc2cc(NC(=O)Cc3cn(C)c4ccccc34)ccc2O[C@H]1CN(C)C(=O)Nc1ccc(C(F)(F)F)cc1,inactive: 1.01
16,CCC(=O)Nc1ccc2c(c1)OC[C@H](C)N(C(=O)CN1CCOCC1)C[C@@H](C)[C@@H](OC)CN(C)C2=O,inactive: 1.02
17,CC(=O)N1Cc2cc(C(=O)NCc3cc(F)cc(F)c3)nc(-c3cccc(C4=CCCC4)c3)c2[C@@H]1CCO,inactive: 0.976
18,COC(=O)[C@H]1OC2(CCCC2)O[C@@H]1C(=O)OC,inactive: 1.02
19,C[C@H](CO)N1C[C@H](C)[C@@H](CN(C)Cc2ccc(Oc3ccccc3)cc2)Oc2c(NC(=O)Nc3ccccc3)cccc2C1=O,inactive: 1.03
20,C[C@@H]1CCCCO[C@@H](CN(C)C(=O)CCC(F)(F)F)[C@@H](C)CN([C@H](C)CO)C(=O)c2cc(NC(=O)CCCCCC(=O)Nc3ccccc3N)ccc2O1,inactive: 0.951
21,Cc1ccc(S(=O)(=O)Nc2cccc3c2O[C@@H](CN(C)CC2CC2)[C@H](C)CN([C@@H](C)CO)C3=O)cc1,inactive: 0.993

row,Structure (SMILES),relative growth
1,CCNC(=O)N1CCC(N)CC1,inactive: 1.03
2,C[C@@H]1CN([C@H](C)CO)C(=O)Cc2cc(NC(=O)c3ccncc3)ccc2O[C@H]1CN(C)Cc1ccc(C(=O)O)cc1,inactive: 1.02
3,OCCN1CCOCC1,inactive: 0.982
4,C=C[C@H]1CCC=C2C(=O)CCC[C@@H]21,inactive: 1.06
5,C[C@@H]1CN([C@@H](C)CO)C(=O)c2cc(NC(=O)CCN3CCOCC3)ccc2O[C@@H]1CN(C)S(=O)(=O)c1cn(C)cn1,inactive: 0.987
6,C[C@@H]1CN([C@H](C)CO)C(=O)c2cc(NS(=O)(=O)c3ccc(Cl)cc3)ccc2O[C@@H](C)CCCCO[C@@H]1CN(C)Cc1ccc(C(F)(F)F)cc1,inactive: 1.04
7,C[C@H]1CN([C@@H](C)CO)C(=O)c2cccc(NC(=O)c3nc4ccccc4s3)c2O[C@@H]1CN(C)Cc1ccc(C(F)(F)F)cc1,inactive: 1
8,NCC[C@H]1CC[C@@H](NC(=O)NC2CCCCC2)[C@@H](CO)O1,inactive: 1.01
9,Nc1ccccc1C(=O)CC(N)C(=O)O (configuration not stated),inactive: 0.878
10,CCCCC/C=C\C/C=C\C/C=C\C/C=C\CCCC(=O)O,inactive: 0.881
11,C[C@@H]1CCCCO[C@H](CN(C)C(=O)c2ccncc2)[C@H](C)CN([C@H](C)CO)C(=O)c2cc(NS(C)(=O)=O)ccc2O1,inactive: 0.993
12,C[C@@H]1CN([C@@H](C)CO)C(=O)c2cccc(NC(=O)c3cnccn3)c2O[C@@H]1CN(C)Cc1ccc2c(c1)OCO2,inactive: 1.02
13,Cc1ccc(S(=O)(=O)Nc2cccc3c2O[C@H](CN(C)S(=O)(=O)c2ccccc2)[C@@H](C)CN([C@@H](C)CO)C3=O)cc1,inactive: 0.966
14,CN1C(=O)c2cc(NC(=O)Nc3ccccc3F)ccc2OC[C@H]2O[C@@H](CC(=O)NCc3ccc(-c4ccccc4)cc3)CC[C@@H]21,inactive: 1.01
15,C[C@H]([C@@H](N)C(=O)N[C@H](C(=O)O)[C@H]1O[C@@H](n2ccc(O)cc2=O)[C@@H](O)[C@H]1O)[C@@H](C)c1ccc(O)cn1,inactive: 1.03
16,Cc1cncc2cccc(S(=O)(=O)N[C@H]3CN[C@H](C(=O)NN)C3)c12,inactive: 1.04
17,CCOC(=O)C(CCc1ccccc1)NC(C)C(=O)N1C(C(=O)O)CC2CCCCC21 (configuration not stated),inactive: 1.05
18,C[C@H](CO)N1C[C@H](C)[C@H](CN(C)S(=O)(=O)c2cccs2)Oc2ccc(NS(=O)(=O)c3cccs3)cc2CC1=O,inactive: 0.995
19,C[C@@H]1CCCCO[C@@H](CN(C)Cc2ccc3c(c2)OCO3)[C@@H](C)CN([C@H](C)CO)C(=O)c2cc(NC(=O)Cc3ccccc3)ccc2O1,inactive: 0.993
20,O=C(CCCCCNC(=O)OCCCCO[C@@H]1C[C@H](c2ccc3c(c2)OCO3)C=C(C(=O)N2CCOCC2)O1)NO,inactive: 0.997
